Experimental data taken from PubChem BioAssay AID463173 (ICCB-Longwood Screening Facility, Harvard Medical School, 2010).
Hit rate of the full screen: of about 52,000 compounds, about 1,700 (3.3%) were called active. No stated cut-off is given here; in the data, active means survival mostly below about 52% (no sharp cut-off); inactive means mostly above about 56%. The list shows a part of the results.

What follows are compounds tested on Wild type (assay: growth inhibition of S. aureus wild type versus tarO mutant, primary screen, teichoic acid synthesis inhibitors, RN4220, OD600 (AID 463173)). Settings: S. aureus RN4220 wild type/DeltatarO growth, OD600, 18 h, hits give low values, screened at 18.75 µg/mL (by protocol).
With `Cc1cc(C)c2c(=O)cc(C(=O)Nc3sc4c(c3C(=O)NCc3ccco3)CCCC4)oc2c1` the survival was inactive: 88%. For `CS(=O)(=O)CC[C@@H](C(=O)NCCc1ccccc1)N1Cc2ccccc2C1=O`, the survival was inactive: 90%. For `Cc1cc2c(=O)[nH][nH]c(=S)n2n1`, the survival was inactive: 101%. For `Cc1cccc(OCC(=O)N2CCC(c3nc4ccccc4o3)CC2)c1C`, the survival was inactive: 72%. In the case of `COCc1cc(C)nc2c1C(=O)NC(c1ccc(NC(C)=O)cc1)N2Cc1ccccc1` (centres undefined), the survival is reported as inactive: 89%. With `Cn1c(=O)c2c(nc(CN3CCN(CCO)CC3)n2CCCc2ccccc2)n(C)c1=O` the survival was inactive: 103%. In the case of `COCCN1Cc2cccc(C(=O)N(CC(=O)NC3CCCCC3)Cc3ccc4c(c3)OCO4)c2C1=O`, the survival is reported as inactive: 113%. In the case of `Cc1ccc(NC(=O)CN2C(=O)c3cccnc3Sc3ccccc32)c(Br)c1`, the survival is reported as inactive: 82%. For `Cc1ccc(Nc2c3c(nc4nncn24)CCC3)c(C)c1`, the survival was inactive: 107%. With `COc1ccc2c(c1)-c1nc(NC(=O)c3cccc(Br)c3)sc1CC2` the survival was inactive: 54%. `CC1CCN(S(=O)(=O)c2cc(C(=O)N3CCN(c4cccc(Cl)c4)CC3)n(C)c2)CC1` was tested, and the survival was inactive: 82%. For `O=C(C1COc2ccccc2O1)N(Cc1cccnc1)c1nc2c(F)cccc2s1` (centres undefined), the survival was inactive: 66%. For `CCOC(=O)c1c(NC(=O)c2cc(-c3cccc(Cl)c3)on2)sc(C(C)=O)c1C`, the survival was inactive: 84%. `COc1ccc(N(CC(=O)N2CCc3ccccc3C2)S(=O)(=O)c2ccccc2)cc1` was tested, and the survival was inactive: 79%. In the case of `Cc1nccn1S(=O)(=O)c1ccc(Cl)cc1Cl`, the survival is reported as inactive: 105%. For `CCOc1ccc(S(=O)(=O)c2cn(CC)c3ccc(F)cc3c2=O)cc1`, the survival was inactive: 87%. For `CCOC(=O)c1nnn(C(CC)C(=O)Nc2ccc(F)cc2)c1C(=O)OCC` (centres undefined), the survival was inactive: 99%. In the case of `COc1ccccc1C1C(C(=O)N2CCCCC2)=C(C)Nc2nc3ccccc3n21` (centres undefined), the survival is reported as inactive: 63%. For `COc1cccc(/C=C/c2nc(C#N)c(NC3CCCCC3)o2)c1`, the survival was inactive: 83%. For `CSc1ccc(CCNC(=O)Cn2c(C)c3cnn(-c4ccccc4)c(=O)c3c2C)cc1`, the survival was inactive: 98%. In the case of `Cc1cccc2cc(C#N)c(N3CCC(C)CC3)nc12`, the survival is reported as inactive: 102%. In the case of `O=C1NCCCC1C(=O)N1CCc2ccccc21` (centres undefined), the survival is reported as inactive: 105%. `CC1=NN(c2ccccc2)C(=O)C1CCC#N` (centres undefined) was tested, and the survival was inactive: 114%. With `Cc1ccc(CNC(=O)c2ccc(Cn3c(SCc4ccc(F)cc4)nc4cccnc43)cc2)o1` the survival was inactive: 84%. `O=c1n(Cc2ccc(F)cc2)c2ccccc2c2nc(-c3ccccc3)nn12` was tested, and the survival was inactive: 86%. In the case of `COc1cccc(-n2c(=O)c3sc4ccccc4c3n(Cc3c(F)cccc3Cl)c2=O)c1`, the survival is reported as inactive: 81%. In the case of `Cc1ccc(-n2nc(CO)c(C(=O)NCCC(C)C)n2)cc1C`, the survival is reported as inactive: 116%. In the case of `CCc1cccc(NC(=O)CSc2nnc(-c3cc4occc4n3C)n2-c2ccccc2C)c1`, the survival is reported as inactive: 71%. `CCOC(=O)c1c(C)oc2nc(C)nc(NCC3CCN(Cc4cc(C)ccc4C)CC3)c12` was tested, and the survival was inactive: 89%. `CCCN(C(=O)CCc1nc(-c2ccc(C)cc2)no1)c1ccc(OCC)cc1` was tested, and the survival was active: 0%. In the case of `Cc1ccc(N2C(=O)C(CC(=O)Nc3cccc(F)c3)N(CCc3ccccc3F)C2=O)cc1` (centres undefined), the survival is reported as inactive: 134%. `COc1cccc(NC(=O)N(CCC(C)C)C2CCN(C(C)C)CC2)c1` was tested, and the survival was inactive: 55%. With `CC1=Nc2ccc(Cl)cc2C(c2ccccc2)N1CC(=O)NN` (centres undefined) the survival was inactive: 99%. With `CCCSc1ncc(Cl)c(C(=O)N(Cc2ccccc2)c2ccc(OC)cc2)n1` the survival was inactive: 80%. `Cc1ccccc1OCC(=O)Nc1ccc(-c2nc3cc(Cl)cc(Cl)c3o2)cc1` was tested, and the survival was inactive: 81%. For `CCN(C(=O)c1cccc(Cl)c1)C1CCCCC1`, the survival was inactive: 107%. For `Cc1ccc(CNC(=O)C2CCN(S(=O)(=O)c3ccc4nc5c(c(C(=O)O)c4c3)CC(C)CC5)CC2)cc1` (centres undefined), the survival was inactive: 84%. In the case of `CCc1cnc2c(c1SCC(=O)NCc1ccc(C)cc1)c(=O)n(C)c(=O)n2C`, the survival is reported as inactive: 67%. With `CC(=O)c1ccc(NS(=O)(=O)c2ccc(Br)s2)cc1` the survival was inactive: 69%. For `Nc1cc(=O)[nH]c2n[nH]c(=S)n12`, the survival was inactive: 111%. For `Cn1ccc2c(OCC(=O)Nc3ccc(OC(F)(F)F)cc3)cccc2c1=O`, the survival was inactive: 76%. With `COc1ccc(NC(=O)C(C)Sc2nc(C)cc(=O)[nH]2)cc1` (centres undefined) the survival was inactive: 121%. With `O=C(COc1ccccc1)N=Nc1c(O)[nH]c2ccccc12` the survival was inactive: 117%. In the case of `COc1cc(Cl)c(C)cc1NC(=O)c1cc2c(=O)oc3ccccc3c2s1`, the survival is reported as inactive: 130%. With `CCn1cc(C(=O)N2CCN(c3cc(Cl)ccc3C)CC2)c(=O)c2cc(S(=O)(=O)N3CCCC3)ccc21` the survival was inactive: 87%. For `CCOc1ccc(C(=O)OCc2cc(=O)n3nc(C4CC4)sc3n2)cc1`, the survival was inactive: 87%. For `O=C(CN1C(=O)CSC1=O)NC1CCCCC1`, the survival was inactive: 104%. With `COc1cc2nc(SCC(=O)Nc3ccccc3C)n3nc(CCn4c(C)nc5ccccc54)nc3c2cc1OC` the survival was inactive: 96%. With `CC(C)(C)C1CCc2c(sc(NC(=O)c3ccco3)c2C(=O)Nc2ccccc2Cl)C1` (centres undefined) the survival was inactive: 108%. For `CCOC(=O)c1ccc(N2CCN(c3ccccc3OC)CC2)c(NC(=O)Nc2ccc(CC)cc2)c1`, the survival was inactive: 80%. With `CCOC(=O)CSc1nc2ccc(NC(=O)COc3ccc(F)cc3)cc2s1` the survival was inactive: 117%. With `Cc1cccc2sc(N(Cc3cccnc3)C(=O)CCOc3ccccc3)nc12` the survival was inactive: 105%. For `CCOCCCNC(=O)c1cn(CC)c2ccc(S(=O)(=O)N3CCOCC3)cc2c1=O`, the survival was inactive: 81%. In the case of `COc1ccc(CNC(=O)C2=CC(c3ccc(OC)c(OC)c3)=NS(=O)(=O)N2C)cc1`, the survival is reported as inactive: 75%. With `Cc1cc(C(=O)N2CCN(c3cccc(Cl)c3)CC2)c2c(C)nn(-c3ccccc3Cl)c2n1` the survival was inactive: 74%. For `Cc1cc(OC(=O)c2cccs2)cc(OC(=O)c2cccs2)c1`, the survival was inactive: 109%. `Cc1cc(C)c(NC(=O)C2CCN(S(=O)(=O)c3c(C)noc3/C=C/c3ccccc3F)CC2)c(C)c1` was tested, and the survival was inactive: 85%. In the case of `COc1ccc(S(=O)(=O)c2c(Nc3ccc(C)cc3C)sc(C(=O)c3ccc(F)cc3)c2N)cc1`, the survival is reported as inactive: 153%. `CCOc1ccc(NC(=O)N(Cc2cn(CC)c3ccccc23)C2CCCCCC2)cc1` was tested, and the survival was active: 0%. `CN(C)c1ccc(C(CNC(=O)c2ccccc2Cl)N2CCCC2)cc1` (centres undefined) was tested, and the survival was inactive: 71%. In the case of `O=C(O)CC(NC(=O)c1ccco1)c1ccc(F)cc1` (centres undefined), the survival is reported as inactive: 105%. With `Cc1nnsc1C(=O)Oc1ccc(Cl)cc1` the survival was inactive: 81%. With `COc1ccc(N2CCN(CCCNC(=O)c3cnn(-c4ccc(C)cc4)c3-n3cccc3)CC2)cc1` the survival was inactive: 83%. In the case of `O=C(CSc1nc2c([nH]c3ccccc32)c(=O)n1-c1cccc(Cl)c1)c1ccccc1`, the survival is reported as inactive: 60%. With `O=C(NCc1ccccc1)C(=O)NCC(c1cccs1)S(=O)(=O)c1cccs1` (centres undefined) the survival was inactive: 65%. For `CCC(Sc1nnc2c(n1)[nH]c1ccccc12)C(=O)Nc1ccccc1OC` (centres undefined), the survival was inactive: 98%. With `CCc1ccccc1S(=O)(=O)Cc1ccc(C(=O)NCCc2ccc(C)cc2)o1` the survival was inactive: 82%. In the case of `Cc1cc(C)cc(C(=O)NCCc2csc(-c3ccc(C(F)(F)F)cc3)n2)c1`, the survival is reported as inactive: 83%. `CCc1ccccc1NC(=O)CSc1ncc2c(n1)-c1cc(Cl)ccc1N(Cc1ccccc1)S2(=O)=O` was tested, and the survival was inactive: 88%. `Cc1ccc(Cn2c(=O)n(CCCCC(=O)NCc3ccc4c(c3)OCO4)c(=O)c3ccccc32)cc1` was tested, and the survival was inactive: 90%. `COc1cccc(N2CCN(C3=NS(=O)(=O)C(c4ccc(C)cc4)=C3C)CC2)c1` was tested, and the survival was inactive: 85%. With `CCc1ccc(-n2nc(C)c3c(C)cc(=O)n(CC(=O)Nc4cc(C)ccc4C)c32)cc1` the survival was inactive: 91%. `COc1ccc(NC(=O)c2ncn(-c3ccccc3)n2)cc1Cl` was tested, and the survival was inactive: 81%. For `COc1ccc(CCNC(=O)CCc2c(C)nc3c4cccnc4nn3c2C)cc1OC`, the survival was inactive: 81%. With `CCOc1ccc2nc3sc(C(=O)Nc4nonc4C)c(N)c3cc2c1` the survival was inactive: 105%. For `CCCCn1cc(S(=O)(=O)c2ccc(OC)cc2)c(=O)c2cc(F)c(N3CCOCC3)cc21`, the survival was inactive: 73%. `CCOC(=O)c1nnn(-c2nn3nnnc3c3ccccc23)c1C` was tested, and the survival was inactive: 101%. For `Cc1c(C(=O)OCC2CCCCC2)[nH]c2c1C(=O)CC(c1ccccc1Cl)C2` (centres undefined), the survival was inactive: 92%. `COc1ccccc1NC(=O)N1CCN(Cc2nc3ccc(C)cc3o2)CC1` was tested, and the survival was inactive: 82%. `Cc1ccc(N2C(=O)c3n[nH]c(C)c3C2c2ccccc2Cl)cc1` (centres undefined) was tested, and the survival was inactive: 137%. With `CC(=O)Nc1c(C)nn(-c2ccccc2)c1N1CCC(C(=O)Nc2cc(F)ccc2F)CC1` the survival was inactive: 63%. With `Cn1cc(S(=O)(=O)N2CCCC2)cc1C(=O)N1CCN(c2cccc(Cl)c2)CC1` the survival was inactive: 84%. `Cc1cc2c(cc1NS(=O)(=O)c1ccc(NC(=O)CC(C)C)cc1)n(C)c(=O)c(=O)n2C` was tested, and the survival was inactive: 82%. `Cc1cc(C)c(NC(=O)Cn2c(=O)n(CC3CCCO3)c(=O)c3ccccc32)c(C)c1` (centres undefined) was tested, and the survival was inactive: 89%. With `COc1ccc(C2=NS(=O)(=O)N(C)C(C(=O)N(C)Cc3ccccc3)=C2)cc1OC` the survival was inactive: 89%. `O=C1c2ccccc2C(=O)N1CNc1ccccc1C1CC1` was tested, and the survival was inactive: 114%. In the case of `CC(C)(C)C1(O)CC(C(F)F)=NN1C(=O)c1ccccc1` (centres undefined), the survival is reported as inactive: 99%. For `Cc1ccccc1OCc1nc2ccccc2n1Cc1ccccc1Cl`, the survival was active: 0%. In the case of `CC(=O)c1ccc(NC(=O)CSc2cn(CC(=O)N(C(C)C)C(C)C)c3ccccc23)cc1`, the survival is reported as inactive: 92%.
